Data on 98 variants can be found in a collection of fitness landscapes (doi:10.1016/j.celrep.2020.107928).

The labels stand for the following.
B1: Caulobacter ParB omega fusion; a variant is named by its letters at X, in order, B8GW30 (parent)
chain: MESVVVGEPGMSEGRRGLGRGLSALLGEVDAAPAQAPGEQLGGSREAPIEILQRNPDQPRRTFREEDLEDLSNSIREKGVLQPILVRPSPDTAGEYQIVAGERAWRAAQRAGLKTVPIMVRELDDLAVLEIGIIENVQRADLNVLEEALSYKVLMEKFERTQENIAQTIGKSXSHVANXMRLLXLPDEVQSYLVSGELTAXHARAIAAAADPVALAKQIIEGGLSVRETEALARKAPNLSAGKSKGGRPPRVKDTDTQALESDLSSVLGLDVSIDHRGSTGTLTITYATLEQLDDLCNRLTRGI

Over roughly 81,000 sequences, “one-hybrid fitness for binding NBS DNA” has its median near -0.1; the highest 2% begin near 0.36. The list shows a part of the results. A value given as a limit tells only on which side of the number the result lay.

Variants of B1 are the subject of this experiment. In words: one-hybrid fitness for binding NBS DNA (the Noc-binding site; scaled: cognate 1, non-cognate 0); higher = stronger binding. The settings on record: with NBS DNA site. The method in brief:
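Fitness is the rescaled log change in variant-to-wild-type read ratio, measured by Illumina sequencing of plasmids before and after bacterial one-hybrid selection. The scale puts cognate at 1 and non-cognate at 0. Selection of Caulobacter ParB libraries, four specificity codons randomised, took place in E. coli USO with a HIS3 reporter, site 19 bp from the promoter, over 48 hours at 37°C on M9-minus-histidine with 0.1 mM IPTG and 5 mM 3-AT.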
Turning to TGLG, the “one-hybrid fitness for binding NBS DNA” value is at most 0.2. To AECR belongs at most 0.2; to MIRL, at most 0.2; to KKAV, at most 0.2. Under LVGL stands at most 0.2; under THGA, at most 0.2. Under QVWW stands at most 0.2. As to NSLM, the “one-hybrid fitness for binding NBS DNA” value is at most 0.2. Under VNLG stands at most 0.2; under SPLY, at most 0.2.

As to IAMR, the “one-hybrid fitness for binding NBS DNA” value is at most 0.2.

With VCTY, the “one-hybrid fitness for binding NBS DNA” value is at most 0.2. Under MQSC stands at most 0.2; under IWAG, at most 0.2; under WVWS, at most 0.2. KICD: the “one-hybrid fitness for binding NBS DNA” value is at most 0.2.

Regarding CDYF, the “one-hybrid fitness for binding NBS DNA” value was at most 0.2. To VCMS belongs at most 0.2; to EHNG, at most 0.2; to HNTA, at most 0.2. With TMCA, the “one-hybrid fitness for binding NBS DNA” value is at most 0.2. Under AAFR stands at most 0.2. For the variant HTRW, the “one-hybrid fitness for binding NBS DNA” value is at most 0.2.

GGTE: the “one-hybrid fitness for binding NBS DNA” value was at most 0.2. For the variant DFKE, the “one-hybrid fitness for binding NBS DNA” value is at most 0.2. To WEYS belongs at most 0.2; to FNYS, at most 0.2; to RAMF, at most 0.2.

For WACT, the “one-hybrid fitness for binding NBS DNA” value is at most 0.2. To MDSM belongs at most 0.2; to SPGA, at most 0.2; to NYLE, at most 0.2. Under NNWG stands at most 0.2; under TSNA, at most 0.2. With AMMG, the “one-hybrid fitness for binding NBS DNA” value was at most 0.2. As for SVQF, the “one-hybrid fitness for binding NBS DNA” value is at most 0.2. To ANPM belongs at most 0.2; to YPAE, at most 0.2. In the case of EVKT, the “one-hybrid fitness for binding NBS DNA” value is at most 0.2. To CRIC belongs at most 0.2.

Consider QEPN, for which the “one-hybrid fitness for binding NBS DNA” value is at most 0.2. To NVVR belongs at most 0.2; to YLYL, at most 0.2; to CHST, at most 0.2. As for VTMV, the “one-hybrid fitness for binding NBS DNA” value was at most 0.2.

Regarding PLHC, the “one-hybrid fitness for binding NBS DNA” value was at most 0.2. Under MDTE stands at most 0.2. To GTGE belongs at most 0.2; to VFQR, at most 0.2. Under YPKV stands at most 0.2. For FPSG, the “one-hybrid fitness for binding NBS DNA” value is at most 0.2.

Consider SCEN, for which the “one-hybrid fitness for binding NBS DNA” value is at most 0.2. Under VPNG stands at most 0.2. To GDRG belongs at most 0.2. Under SRQM stands at most 0.2; under MDLS, at most 0.2.

Turning to NHDG, the “one-hybrid fitness for binding NBS DNA” value was at most 0.2.

Take ADIR: the “one-hybrid fitness for binding NBS DNA” value was at most 0.2.

As for NWNE, the “one-hybrid fitness for binding NBS DNA” value was at most 0.2. To PSLA belongs at most 0.2; to AKIC, at most 0.2. Under EAHS stands at most 0.2; under EEER, at most 0.2; under RMMR, 0.332.

EWAW: the “one-hybrid fitness for binding NBS DNA” value was at most 0.2. Under SVRY stands at most 0.2; under LHCR, at most 0.2; under QGWC, at most 0.2. Consider PLTL, for which the “one-hybrid fitness for binding NBS DNA” value was at most 0.2. To YAAE belongs at most 0.2. To RVVR belongs 0.3. For the variant NTRI, the “one-hybrid fitness for binding NBS DNA” value was at most 0.2. To HRAR belongs at most 0.2.

For GEKG, the “one-hybrid fitness for binding NBS DNA” value was at most 0.2. Under LMKM stands at most 0.2. To PILV belongs at most 0.2; to NQLW, at most 0.2; to CKQC, at most 0.2. Under SYDT stands at most 0.2; under QMTV, at most 0.2; under QTHY, 0.384. Regarding ESYS, the “one-hybrid fitness for binding NBS DNA” value was at most 0.2. To GDME belongs at most 0.2.

As to VHPH, the “one-hybrid fitness for binding NBS DNA” value is at most 0.2. To KAPT belongs at most 0.2; to PFKC, at most 0.2. WPWT: the “one-hybrid fitness for binding NBS DNA” value was at most 0.2.

With KSCN, the “one-hybrid fitness for binding NBS DNA” value is at most 0.2. Under SERA stands at most 0.2. On to EAYT, for which the “one-hybrid fitness for binding NBS DNA” value is at most 0.2. Under KNEM stands at most 0.2. To GNIK belongs at most 0.2.

In the case of DTHE, the “one-hybrid fitness for binding NBS DNA” value was at most 0.2. To TCLS belongs at most 0.2; to YNLS, at most 0.2; to RRTL, at most 0.2. To REDD belongs at most 0.2; to PLAL, at most 0.2.
